This note sets out measurements from PMC4336329 (PLoS ONE, 2015).

About 14,000 (4.5%) of roughly 310,000 compounds showed an effect of 50% or more. The effect is printed as a negative number. Some of the results follow.
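Also: peak tail current of the secondary pulse compared with the same well before compound.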

Sequence of human ether-à-go-go-related gene (hERG) potassium channel (Q12809 whole entry, looked up): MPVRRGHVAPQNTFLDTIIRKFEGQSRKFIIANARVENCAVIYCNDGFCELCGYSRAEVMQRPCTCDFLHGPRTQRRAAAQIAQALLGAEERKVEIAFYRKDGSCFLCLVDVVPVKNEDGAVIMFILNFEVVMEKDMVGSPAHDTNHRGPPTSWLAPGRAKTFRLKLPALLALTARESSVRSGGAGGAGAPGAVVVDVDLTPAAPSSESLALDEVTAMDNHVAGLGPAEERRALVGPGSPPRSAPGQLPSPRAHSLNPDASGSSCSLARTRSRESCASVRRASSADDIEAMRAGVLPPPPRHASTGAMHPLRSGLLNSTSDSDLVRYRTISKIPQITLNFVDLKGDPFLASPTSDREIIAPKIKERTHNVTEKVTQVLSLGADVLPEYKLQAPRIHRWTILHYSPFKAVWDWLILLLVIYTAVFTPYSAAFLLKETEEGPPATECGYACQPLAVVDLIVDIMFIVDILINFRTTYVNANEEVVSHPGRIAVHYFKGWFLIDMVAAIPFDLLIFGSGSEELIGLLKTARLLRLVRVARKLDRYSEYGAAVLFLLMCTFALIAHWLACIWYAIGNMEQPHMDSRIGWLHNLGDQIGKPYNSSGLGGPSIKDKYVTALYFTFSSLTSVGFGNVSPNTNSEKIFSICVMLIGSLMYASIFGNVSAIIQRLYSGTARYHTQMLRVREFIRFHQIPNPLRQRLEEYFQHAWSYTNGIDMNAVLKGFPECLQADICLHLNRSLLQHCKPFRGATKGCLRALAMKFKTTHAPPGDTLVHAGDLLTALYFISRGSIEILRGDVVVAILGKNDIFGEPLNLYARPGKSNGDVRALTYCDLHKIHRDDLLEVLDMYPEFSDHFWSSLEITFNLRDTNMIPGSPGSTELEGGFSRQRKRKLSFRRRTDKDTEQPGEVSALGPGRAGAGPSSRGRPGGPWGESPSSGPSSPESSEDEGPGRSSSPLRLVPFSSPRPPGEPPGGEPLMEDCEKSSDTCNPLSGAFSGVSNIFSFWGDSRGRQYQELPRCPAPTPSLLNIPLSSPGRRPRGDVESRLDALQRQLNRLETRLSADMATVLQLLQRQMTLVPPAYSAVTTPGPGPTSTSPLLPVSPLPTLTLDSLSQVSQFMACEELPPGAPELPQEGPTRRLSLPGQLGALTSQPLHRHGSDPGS

This assay has as its target human ether-à-go-go-related gene (hERG) potassium channel (human, UniProt Q12809). The assay can be described thus: primary screen, population patch clamp on CHO cells stably expressing hERG.
Turning to `COc1ccccc1C(=O)C1CCCN(C(=O)c2cccc(Cn3cccn3)c2)C1` (stereo not drawn), the “hERG current change (%, negative = inhibition) at 10uM” value is listed as -13%. Consider `O=C(Cc1cccs1)NCc1ccc(F)cc1`, for which the “hERG current change (%, negative = inhibition) at 10uM” value is listed as -1.5%. The same measure for `Cc1cccc(C)c1NC(=S)N(CCN(C)C)Cc1cccs1`: 0.189%.

On to `CCCCN(CC)CCCNC(=O)Cn1nc(Cc2cccnc2)c2ccccc2c1=O`, for which the “hERG current change (%, negative = inhibition) at 10uM” value stood at 7.94%. The same measure for `Cc1nc(Nc2ccccc2Cl)sc1C(=O)Nc1ccccc1`: 2.26%; for `O=C(O)c1ccc(N2C(=O)CSC2c2cccc([N+](=O)[O-])c2)cc1` (stereo not drawn): 15.5%; for `CSc1nc(C)cc(OCC(=O)n2nc(C)cc2C)n1`: 7.05%.

As to `O=[N+]([O-])c1ccc(N/N=C/c2ccccc2)c(F)c1`, the “hERG current change (%, negative = inhibition) at 10uM” value is reported as 4.79%. Under `COc1ccc(-n2nnc3c(=O)n(CC(=O)Nc4cc(C)on4)cnc32)cc1OC` stands 8.91%; under `O=C(COc1ccccc1Cl)N1CCN(c2ccc([N+](=O)[O-])c(N3CCCCC3)c2)CC1`, -16.2%; under `Cc1cc(C)c(NC(=S)N(C)C)c(C)c1`, 7.79%. Under `O=C1COc2ccc(C(=O)C[n+]3cccc(O)c3)cc2N1.[Cl-]` stands -3.25%; under `CCn1ncc(C2=NOC(C(=O)Nc3ccc4c(c3)OCO4)C2)c1C` (stereo not drawn), 1.44%. The same measure for `Cc1cc(C)nc(Nc2nc(-c3ccccc3)cs2)n1`: 16.4%; for `Nc1ncnc2c1ncn2[C@H]1CC[C@@H](CO)O1`: 15.1%; for `CC(C)c1cc(=O)[nH]c(N2CCN(Cc3ccc4c(c3)OCO4)CC2)n1`: -0.0862%. As to `Cc1ccc(S(=O)(=O)NCCCOC(=O)Nc2ccncc2)cc1`, the “hERG current change (%, negative = inhibition) at 10uM” value is on record as -13.1%.

On to `COc1ccc(-n2c(-c3cnccn3)n[nH]c2=S)cc1`, for which the “hERG current change (%, negative = inhibition) at 10uM” value stood at 15.7%. As to `C/C(N)=C(/C#N)C(=O)COC(=O)CC1CCCC1`, the “hERG current change (%, negative = inhibition) at 10uM” value is reported as -2.15%. Under `CCCC1=C([O-])C2N=CC=CC2=[N+](c2ccccn2)C1=O` (stereo not drawn) stands 2.16%; under `CCN(C(=O)Cn1nc(C)n2c(cc3cc(C)ccc32)c1=O)c1ccccc1`, -41.2%; under `CN(Cc1ccccc1)C(=O)c1ccc(Cl)c([N+](=O)[O-])c1`, -53.5%. As for `Cc1ccc(S(=O)(=O)CCC(=O)OCc2ccc(S(=O)(=O)C(C)C)cc2)cc1`, the “hERG current change (%, negative = inhibition) at 10uM” value is listed as -28.1%. For `Cc1cc(=O)n2[nH]c(-c3ccco3)nc2n1`, the “hERG current change (%, negative = inhibition) at 10uM” value was 13.9%. The same measure for `O=C(Nc1nc2ccccc2[nH]1)c1ccccc1[N+](=O)[O-]`: 19.5%; for `CCc1ccc(C(=O)NC(CCSC)C(=O)OC)cc1` (stereo not drawn): 11.3%; for `CC1(C)Cc2c(sc(/N=C/N3CCCCCC3)c2C#N)C(C)(C)N1`: 0.934%.

Consider `C=CCSc1nc(O)c(CC)c(=O)n1C(C)CC` (stereo not drawn), for which the “hERG current change (%, negative = inhibition) at 10uM” value was -11.3%. Under `O=C(Cc1cccc2ccccc12)Nc1ccc(OC(F)F)c(Cl)c1` stands 4.11%; under `N#CNC(=Nc1cccc(C(F)(F)F)c1)SCc1ccc(C(=O)O)cc1`, 2.03%; under `CCOc1nc(NCCC2=CCCCC2)nc(N2CCOCC2)n1`, -5.86%. The same measure for `O=[N+]([O-])c1ccc(O)c(/C=N\N=C2c3ccccc3-c3ccccc32)c1`: 4.16%; for `CCOC(=O)C[n+]1c(C)sc2ccc(OC)cc21.[Br-]`: 15.4%.

For the molecule `Cc1ccc(N(C(=O)c2csnn2)C(C(=O)NC2CCCC2)c2cccnc2)cc1` (stereo not drawn), the “hERG current change (%, negative = inhibition) at 10uM” value was -5.55%. For `COc1cccc(-c2cc(C(=O)NCC3CCCO3)c3cc(Br)cc(C)c3n2)c1` (stereo not drawn), the “hERG current change (%, negative = inhibition) at 10uM” value came out at 18.3%. The same measure for `CCC(=O)Nc1nc(C)cc(SCC(=O)OC)n1`: 5.53%. In the case of `CC(=O)c1ccc(N2CCN(S(=O)(=O)c3ccc4c(c3)CC(=O)N4)CC2)cc1`, the “hERG current change (%, negative = inhibition) at 10uM” value is on record as -1.11%. Regarding `O=C(c1ccco1)N1N=C(c2cccs2)CC1c1ccccc1O` (stereo not drawn), the “hERG current change (%, negative = inhibition) at 10uM” value is 14.4%.

Turning to `COc1cc(OC)cc(C(=O)n2cnnc2N)c1`, the “hERG current change (%, negative = inhibition) at 10uM” value was -4.77%. For the molecule `Cc1ccccc1NC(=O)c1sc2nc(N3CCOCC3)c3c(c2c1N)CCCC3`, the “hERG current change (%, negative = inhibition) at 10uM” value worked out at 13%.

Turning to `O=S(=O)(N1CCOCC1)N1CCCN(S(=O)(=O)N2CCOCC2)CC1`, the “hERG current change (%, negative = inhibition) at 10uM” value worked out at 5.76%. Under `O=C(CSc1nc2c(c(=O)[nH]1)CCC2)Nc1cccc(Cl)c1` stands 4.27%. As for `Nc1nn(-c2ccccc2)c(N)c1N=Nc1ccc2c(c1)OCO2`, the “hERG current change (%, negative = inhibition) at 10uM” value is recorded as -15.1%. Under `O=C(Nc1nc2ccc(F)cc2s1)C1CC(=O)N(c2ccc3c(c2)OCCO3)C1` (stereo not drawn) stands -8.48%; under `CCN(CC)S(=O)(=O)c1ccc(OC)c(NC(=O)OCc2ccccc2)c1`, -13.4%.
